No constants are given. Whether binding was seen depends on the method and setting. Some results given as binding are weak or reduced against the parent protein; the word gives no strength. Tags and fused reporters may be left off the sequences shown.

Amino acid sequences for entries named in this document (tags omitted).
UniProt Q9VEN2: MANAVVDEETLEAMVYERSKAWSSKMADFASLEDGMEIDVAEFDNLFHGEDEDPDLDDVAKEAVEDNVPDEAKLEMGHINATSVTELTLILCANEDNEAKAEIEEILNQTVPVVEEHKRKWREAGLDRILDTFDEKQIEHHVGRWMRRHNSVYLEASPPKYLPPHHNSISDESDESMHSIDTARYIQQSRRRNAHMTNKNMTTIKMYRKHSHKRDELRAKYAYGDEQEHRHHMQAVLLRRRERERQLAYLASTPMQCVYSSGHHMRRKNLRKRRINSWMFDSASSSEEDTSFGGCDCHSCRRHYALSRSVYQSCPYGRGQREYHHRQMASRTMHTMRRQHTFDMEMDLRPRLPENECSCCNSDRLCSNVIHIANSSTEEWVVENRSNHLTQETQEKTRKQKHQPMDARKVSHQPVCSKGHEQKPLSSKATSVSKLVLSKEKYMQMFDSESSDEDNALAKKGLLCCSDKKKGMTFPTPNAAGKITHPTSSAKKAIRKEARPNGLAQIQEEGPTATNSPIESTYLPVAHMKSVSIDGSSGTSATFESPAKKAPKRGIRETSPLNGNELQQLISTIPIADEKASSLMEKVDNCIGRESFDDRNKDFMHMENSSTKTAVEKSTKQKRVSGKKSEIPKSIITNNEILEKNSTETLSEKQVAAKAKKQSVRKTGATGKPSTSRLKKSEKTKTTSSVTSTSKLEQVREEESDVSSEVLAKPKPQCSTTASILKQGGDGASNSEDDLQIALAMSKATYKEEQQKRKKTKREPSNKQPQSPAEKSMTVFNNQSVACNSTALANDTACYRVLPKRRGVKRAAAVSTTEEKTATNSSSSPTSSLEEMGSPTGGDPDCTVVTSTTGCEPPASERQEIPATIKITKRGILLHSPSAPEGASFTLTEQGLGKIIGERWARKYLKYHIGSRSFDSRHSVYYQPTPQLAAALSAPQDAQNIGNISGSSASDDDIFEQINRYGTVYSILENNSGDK

The target of this assay is N-terminally GFP-LacI-tagged CAL1 (Drosophila melanogaster) (UniProt Q9VEN2). Description: LacI/LacO tethering and recruitment assay (immunofluorescence); bait fused to GFP-LacI tethered to chromosomal LacO arrays in human U2OS cells; HA- or V5-tagged prey transiently co-expressed; IF 48 h after transfection, prey intensity at the LacO spot or % of cells; no third Drosophila centromere protein co-expressed.

B1: HA-dCENP-C (protein, UniProt Q9VHP9 1-1411)
chain: MSKPQNNDTLELDDILSQPVKDKERFAAFMMRKLAENKPAQNDNLFGNFKLDFDLDFEVPLIKKSQAKPKSKLPEVQPLGELVSKNSAATEKVNEPPVDQAPNENVPPRRSPTLSPNNRRSMRRSGNVPGSDKLRRHAIRRRSRSCGRQLLPEFEETVNLTRSISSPVNFLPEISSTPCTEKQKEEVAKNTTRVETDKPAEKPMELSQEPEPENPLQTKVTSPARNPILAAEIEQICKERQSSFHKNVLQLDYSGRAPYSRPPTPSSPSVAGLRRTYTMEKGPAPGQLLLSPSHRYDTPSKMPVVKAKRFNQELMVPDTPERQSHDPAWQSEPQPEFVVPETQPQDLGELVQTLSRSAISPIVVINTSNSNRSVRRDAVAMKSVPTSPVTALSSPPIAPSPRRSAAASPQKSIAQLPRVEENMDAIMTDDESDEHPSTVPLNLAPSGGNTTRQRRLRSSNRARATIESQESSMRLLNLHKSVNAKKSKPRKTAIPLNKAPSAPINGEQFARELTRMSNYEILDLRKRNSLNEIYPLNGHRNHRSEKLILEEEIQRELLRRNLMDEAEGLPKQQSSDDSNEDYIPVPPKTQSLRTKSNDRSQGRGRPRSTRRDLPMTTELVNYLGLSQTLETRRKSSKDGKRCLYTKGSSDHEDNDSLSPVKLPRLSKSIQIVPPPPVSLRYSQSLQNLPCSGKFDFDNVVMAAPPDFHDSVNSDAIEIAPPPPEYVVNTRGRSTSGRKSNKNDLVLPPPGYEGGQEEEHDERPSQPRCTAKELQQSTQNGRRAMENELVPPPIEYVEEENRNNEQSRRSTKNGNLVDRNTHNAVEYCEPPEPPEYDDSDHGQASILRRSGKKLQHSKQSVQKSNKEQIIAPSYENNEDYDSDEEPIYNEEYGKEESQNKNVTRRKSDKDEMASHTLECIEGPDPNWNSSCNKQNRNHQNASKSKENDKLANRSSKSQKLSNPRQNAVGTEKSVALSNRGEECTEKSSDVMESLRVNTPTPPIDQNSDDVPSRNPSPSRTLLSDDVPSTSRAALEFLQRSQNMSKSRPPDESSADVVFKKPLAPAPRAKSKKGKSEVDKLKLAKMPVEAEELNTTGIRRSKRGQVPLQMSWCHTMDPSKFNFMSGFIEPRSKNSKTKKGNLSKAKKASATKPKPTVEKNLPDNRGPLCSSTPRISEKLPGAIPHSESLGLSTLTWEETEVQAEAEKVPKKRGRPKKAVGGVQTDTEAEPEPEPEPMISSVAPLTSDQEEPDVPDEQAPYTEAALGPVVFSTPLRDEQEEASTKLMQWLRGVGDAPPSASMSDENASVSSANELIFCQVDGIDYAFYNTKEKAMLGYMRFKPYQKRSMKQAKVHPLKLLVQFGEFNVETLAVGEEKEVHSVLRVGDMIEIDRGTRYSIQNAIDKVSVLMCIRS
Turning to B1, the binding entry is “binds”.

(Values after paper PMC6900781.)
